# Assay results from the supplement of paper PMC8728848.
# The other results are listed elsewhere or left out.
# B1: LICBM33A (Lactococcus lactis), Q9CE94 (protein)
# chain: MKKLLTGLLVAAGLLSVSLLIKTDTVSAHGYVQSPPARGYQGQLDSQSLGWTAAFNIYGNVISNPQSLEAPKGFPECGPADGRIASANGGLGQIGDFVLDNQTSSRWKKTSISTGSNIFTWKYTAPHKTTKWHYYMTKTGWDQNAPLKHSELELIGTINHDGSPATNNLSHTINIPTDRSGYHIVLAVWDVADTSNAFYNVIDINVNNKNASSQVFGPFL
# Legend:
# Test in all cases: glycan array binding signal (z-score within array); higher = stronger binding
# Conditions in all cases: glycan notation: IUPAC condensed, linker removed
# [1] = target: Neu5Ac(a2-3)Gal
# Outline: (§1)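 The Consortium for Functional Glycomics database supplied 3228 glycan arrays, of which those lacking an available protein sequence were dropped. The binding signal, a within-array Z-score, was averaged across arrays of the same protein sequence and across linkers. Negative scores can be read as non-binding.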
# [2] = target: Neu5Ac(a2-3)Gal(b1-3)GalNAc
# Outline: as §1
# [3] = target: Neu5Ac(a2-3)Gal(b1-3)GalNAc(b1-3)Gal(a1-4)Gal(b1-4)Glc
# Outline: as §1
# [4] = target: Neu5Ac(a2-3)Gal(b1-3)GalNAc(b1-4)Gal(b1-4)Glc
# Outline: as §1
# [5] = target: Neu5Ac(a2-3)Gal(b1-3)GalNAc(b1-4)[Neu5Ac(a2-3)]Gal(b1-4)Glc
# Outline: as §1
# [6] = target: Neu5Ac(a2-3)Gal(b1-3)GalNAc(b1-4)[Neu5Ac(a2-8)Neu5Ac(a2-3)]Gal(b1-4)Glc
# Outline: as §1
# [7] = target: Neu5Ac(a2-3)Gal(b1-3)GalNAc6S
# Outline: as §1
# [8] = target: Neu5Ac(a2-3)Gal(b1-3)GlcNAc
# Outline: as §1
# [9] = target: Neu5Ac(a2-3)Gal(b1-3)GlcNAc(b1-2)Man
# Outline: as §1
# [10] = target: Neu5Ac(a2-3)Gal(b1-3)GlcNAc(b1-2)Man(a1-3)[GlcNAc(b1-4)][Neu5Ac(a2-3)Gal(b1-3)GlcNAc(b1-2)Man(a1-6)]Man(b1-4)GlcNAc(b1-4)GlcNAc
# Outline: as §1
# [11] = target: Neu5Ac(a2-3)Gal(b1-3)GlcNAc(b1-2)Man(a1-3)[Neu5Ac(a2-3)Gal(b1-3)GlcNAc(b1-2)Man(a1-6)]Man(b1-4)GlcNAc(b1-4)GlcNAc
# Outline: as §1
# [12] = target: Neu5Ac(a2-3)Gal(b1-3)GlcNAc(b1-2)[Neu5Ac(a2-3)Gal(b1-3)GlcNAc(b1-4)]Man(a1-6)[Neu5Ac(a2-3)Gal(b1-3)GlcNAc(b1-2)Man(a1-3)]Man(b1-4)GlcNAc(b1-4)GlcNAc
# Outline: as §1
# [13] = target: Neu5Ac(a2-3)Gal(b1-3)GlcNAc(b1-3)Gal(b1-3)GlcNAc
# Outline: as §1
# [14] = target: Neu5Ac(a2-3)Gal(b1-3)GlcNAc(b1-3)Gal(b1-4)GlcNAc
# Outline: as §1
# [15] = target: Neu5Ac(a2-3)Gal(b1-3)GlcNAc(b1-3)GalNAc
# Outline: as §1
# [16] = target: Neu5Ac(a2-3)Gal(b1-3)GlcNAc(b1-6)GalNAc
# Outline: as §1
# [17] = target: Neu5Ac(a2-3)Gal(b1-3)GlcNAc6S
# Outline: as §1
# [18] = target: Neu5Ac(a2-3)Gal(b1-3)[Fuc(a1-4)]GlcNAc
# Outline: as §1
# [19] = target: Neu5Ac(a2-3)Gal(b1-3)[Fuc(a1-4)]GlcNAc(b1-3)Gal(b1-3)[Fuc(a1-4)]GlcNAc
# Outline: as §1
# [20] = target: Neu5Ac(a2-3)Gal(b1-3)[Fuc(a1-4)]GlcNAc(b1-3)Gal(b1-4)[Fuc(a1-3)]GlcNAc
# Outline: as §1
# [21] = target: Neu5Ac(a2-3)Gal(b1-3)[GlcNAc(b1-6)]GalNAc
# Outline: as §1
# [22] = target: Neu5Ac(a2-3)Gal(b1-3)[Neu5Ac(a2-6)]GalNAc
# Outline: as §1
# [23] = target: Neu5Ac(a2-3)Gal(b1-3)[Neu5Ac(a2-6)]GlcNAc(b1-3)[Fuc(a1-3)[Gal(b1-4)]GlcNAc(b1-6)]Gal(b1-4)Glc
# Outline: as §1
# [24] = target: Neu5Ac(a2-3)Gal(b1-3)]Neu5Ac(a2-3)Gal(b1-4)]GlcNAc
# Outline: as §1
# [25] = target: Neu5Ac(a2-3)Gal(b1-4)Glc
# Outline: as §1
# [26] = target: Neu5Ac(a2-3)Gal(b1-4)GlcNAc
# Outline: as §1
# [27] = target: Neu5Ac(a2-3)Gal(b1-4)GlcNAc(b1-2)Man
# Outline: as §1
# [28] = target: Neu5Ac(a2-3)Gal(b1-4)GlcNAc(b1-2)Man(a1-3)[GlcNAc(b1-4)][Neu5Ac(a2-3)Gal(b1-4)GlcNAc(b1-2)Man(a1-6)]Man(b1-4)GlcNAc(b1-4)GlcNAc
# Outline: as §1
# [29] = target: Neu5Ac(a2-3)Gal(b1-4)GlcNAc(b1-2)Man(a1-3)[Neu5Ac(a2-3)Gal(b1-4)GlcNAc(b1-2)Man(a1-6)]Man(b1-4)GlcNAc(b1-4)GlcNAc
# Outline: as §1
# [30] = target: Neu5Ac(a2-3)Gal(b1-4)GlcNAc(b1-2)Man(a1-3)[Neu5Ac(a2-3)Gal(b1-4)GlcNAc(b1-2)Man(a1-6)]Man(b1-4)GlcNAc(b1-4)[Fuc(a1-6)]GlcNAc
# Outline: as §1
# [31] = target: Neu5Ac(a2-3)Gal(b1-4)GlcNAc(b1-2)Man(a1-3)[Neu5Ac(a2-6)Gal(b1-4)GlcNAc(b1-2)Man(a1-6)]Man(b1-4)GlcNAc(b1-4)GlcNAc
# Outline: as §1
# [32] = target: Neu5Ac(a2-3)Gal(b1-4)GlcNAc(b1-2)[Neu5Ac(a2-3)Gal(b1-4)GlcNAc(b1-4)]Man(a1-3)[GlcNAc(b1-4)][Neu5Ac(a2-3)Gal(b1-4)GlcNAc(b1-2)[Neu5Ac(a2-3)Gal(b1-4)GlcNAc(b1-6)]Man(a1-6)]Man(b1-4)GlcNAc(b1-4)GlcNAc
# Outline: as §1
# [33] = target: Neu5Ac(a2-3)Gal(b1-4)GlcNAc(b1-2)[Neu5Ac(a2-3)Gal(b1-4)GlcNAc(b1-4)]Man(a1-3)[GlcNAc(b1-4)][Neu5Ac(a2-3)Gal(b1-4)GlcNAc(b1-4)Man(a1-6)]Man(b1-4)GlcNAc(b1-4)GlcNAc
# Outline: as §1
# [34] = target: Neu5Ac(a2-3)Gal(b1-4)GlcNAc(b1-2)[Neu5Ac(a2-3)Gal(b1-4)GlcNAc(b1-6)]Man(a1-6)[Neu5Ac(a2-3)Gal(b1-4)GlcNAc(b1-2)Man(a1-3)][GlcNAc(b1-4)]Man(b1-4)GlcNAc(b1-4)GlcNAc
# Outline: as §1
# [35] = target: Neu5Ac(a2-3)Gal(b1-4)GlcNAc(b1-3)Gal
# Outline: as §1
# [36] = target: Neu5Ac(a2-3)Gal(b1-4)GlcNAc(b1-3)Gal(b1-3)GlcNAc
# Outline: as §1
# [37] = target: Neu5Ac(a2-3)Gal(b1-4)GlcNAc(b1-3)Gal(b1-4)GlcNAc
# Outline: as §1
# [38] = target: Neu5Ac(a2-3)Gal(b1-4)GlcNAc(b1-3)Gal(b1-4)GlcNAc(b1-2)Man(a1-3)[Neu5Ac(a2-3)Gal(b1-4)GlcNAc(b1-3)Gal(b1-4)GlcNAc(b1-2)Man(a1-6)]Man(b1-4)GlcNAc(b1-4)GlcNAc
# Outline: as §1
# [39] = target: Neu5Ac(a2-3)Gal(b1-4)GlcNAc(b1-3)Gal(b1-4)GlcNAc(b1-3)Gal(b1-4)GlcNAc
# Outline: as §1
# [40] = target: Neu5Ac(a2-3)Gal(b1-4)GlcNAc(b1-3)Gal(b1-4)GlcNAc(b1-3)Gal(b1-4)GlcNAc(b1-2)Man(a1-3)[Neu5Ac(a2-3)Gal(b1-4)GlcNAc(b1-3)Gal(b1-4)GlcNAc(b1-3)Gal(b1-4)GlcNAc(b1-2)Man(a1-6)]GalNAc
# Outline: as §1
# [41] = target: Neu5Ac(a2-3)Gal(b1-4)GlcNAc(b1-3)Gal(b1-4)GlcNAc(b1-3)GalNAc
# Outline: as §1
# [42] = target: Neu5Ac(a2-3)Gal(b1-4)GlcNAc(b1-3)Gal(b1-4)GlcNAc(b1-3)[Neu5Ac(a2-3)Gal(b1-4)GlcNAc(b1-3)Gal(b1-4)GlcNAc(b1-6)]GalNAc
# Outline: as §1
# [43] = target: Neu5Ac(a2-3)Gal(b1-4)GlcNAc(b1-3)Gal(b1-4)GlcNAc(b1-6)[Gal(b1-3)]GalNAc
# Outline: as §1
# [44] = target: Neu5Ac(a2-3)Gal(b1-4)GlcNAc(b1-3)Gal(b1-4)[Fuc(a1-3)]GlcNAc
# Outline: as §1
# [45] = target: Neu5Ac(a2-3)Gal(b1-4)GlcNAc(b1-3)GalNAc
# Outline: as §1
binder,measurement,setting,value
B1,glycan array binding signal (z-score),[1],0.406
same,glycan array binding signal (z-score),[2],-0.472
same,glycan array binding signal (z-score),[3],-0.631
same,glycan array binding signal (z-score),[4],-0.127
same,glycan array binding signal (z-score),[5],-0.337
same,glycan array binding signal (z-score),[6],-0.551
same,glycan array binding signal (z-score),[7],-0.141
same,glycan array binding signal (z-score),[8],-0.238
same,glycan array binding signal (z-score),[9],0.615
same,glycan array binding signal (z-score),[10],-0.346
same,glycan array binding signal (z-score),[11],-0.228
same,glycan array binding signal (z-score),[12],-0.513
same,glycan array binding signal (z-score),[13],-0.383
same,glycan array binding signal (z-score),[14],-0.697
same,glycan array binding signal (z-score),[15],-0.354
same,glycan array binding signal (z-score),[16],-0.249
same,glycan array binding signal (z-score),[17],0.098
same,glycan array binding signal (z-score),[18],3.52
same,glycan array binding signal (z-score),[19],3.37
same,glycan array binding signal (z-score),[20],-0.189
same,glycan array binding signal (z-score),[21],1.55
same,glycan array binding signal (z-score),[22],0.795
same,glycan array binding signal (z-score),[23],-0.407
same,glycan array binding signal (z-score),[24],1.84
same,glycan array binding signal (z-score),[25],0.894
same,glycan array binding signal (z-score),[26],0.435
same,glycan array binding signal (z-score),[27],-0.066
same,glycan array binding signal (z-score),[28],-0.421
same,glycan array binding signal (z-score),[29],3.04
same,glycan array binding signal (z-score),[30],-0.464
same,glycan array binding signal (z-score),[31],-0.289
same,glycan array binding signal (z-score),[32],0.049
same,glycan array binding signal (z-score),[33],-0.051
same,glycan array binding signal (z-score),[34],-0.147
same,glycan array binding signal (z-score),[35],-0.388
same,glycan array binding signal (z-score),[36],-0.245
same,glycan array binding signal (z-score),[37],-0.27
same,glycan array binding signal (z-score),[38],-0.451
same,glycan array binding signal (z-score),[39],0.605
same,glycan array binding signal (z-score),[40],-0.006
same,glycan array binding signal (z-score),[41],1.48
same,glycan array binding signal (z-score),[42],1.85
same,glycan array binding signal (z-score),[43],0.336
same,glycan array binding signal (z-score),[44],1.85
same,glycan array binding signal (z-score),[45],-0.16
